# In all, about 110,000 compounds went through this assay and about 230 (0.21%) showed an effect of 50% or more. Some of the results follow.
# Target: DPAP1 (Plasmodium falciparum, UniProt Q8IIJ9)
# Assay: primary screen, percent inhibition; read by cleavage of a fluorogenic dipeptide substrate; higher = more effect of the substance
# Parameters: species or system P. falciparum D10 trophozoite lysates; single well
# 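Also: 30 min substrate incubation versus DMSO and 10 µM JCP410 controls.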
# DPAP1, sequence (Q8IIJ9 whole entry, looked up): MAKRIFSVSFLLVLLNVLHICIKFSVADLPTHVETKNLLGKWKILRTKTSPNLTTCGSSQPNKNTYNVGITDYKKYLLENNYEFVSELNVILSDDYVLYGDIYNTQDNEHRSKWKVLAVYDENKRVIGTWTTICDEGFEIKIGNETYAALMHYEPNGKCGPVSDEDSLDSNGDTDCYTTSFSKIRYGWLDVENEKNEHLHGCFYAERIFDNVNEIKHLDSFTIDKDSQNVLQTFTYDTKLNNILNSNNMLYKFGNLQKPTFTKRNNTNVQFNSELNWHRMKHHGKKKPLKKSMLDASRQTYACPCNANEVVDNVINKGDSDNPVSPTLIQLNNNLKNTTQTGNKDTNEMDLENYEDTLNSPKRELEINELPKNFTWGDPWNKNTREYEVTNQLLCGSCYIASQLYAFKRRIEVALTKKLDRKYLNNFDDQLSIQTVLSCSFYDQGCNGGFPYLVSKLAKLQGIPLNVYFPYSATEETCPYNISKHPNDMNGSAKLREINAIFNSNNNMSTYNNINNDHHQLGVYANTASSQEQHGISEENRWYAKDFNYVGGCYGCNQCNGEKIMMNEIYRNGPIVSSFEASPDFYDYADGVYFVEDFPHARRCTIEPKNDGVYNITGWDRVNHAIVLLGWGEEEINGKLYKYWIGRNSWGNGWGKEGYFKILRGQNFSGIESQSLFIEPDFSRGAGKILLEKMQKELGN
row,Structure (SMILES),% Inhibition @ 10 uM [%]
1,Cc1ccc(O)c(-c2cc(C(F)(F)F)[nH]n2)c1,22.7
2,Cc1cc2n(n1)CCCN2C(=O)CCC(=O)N1CCN(C(=O)c2ccco2)CC1,-3.94
3,Cc1sc2ncnc(NCc3ccccc3)c2c1C,-2.18
4,CC(NC(=O)c1cc(-c2ccc3c(c2)OCO3)on1)c1ccccc1 (stereo not drawn),-1.84
5,O=C1C(Cl)=C(NCCc2ccccc2)C(=O)N1c1ccccc1,-5.48
6,C=CCn1c(SCC(=O)NCc2cccnc2)nc2sc3c(c2c1=O)CCC3,-1.64
7,Cn1cc(Cl)c(C(=O)N2CCN(c3ncccn3)CC2)n1,2.7
8,CC(=O)Nc1ccc(/C=C2\SC(=O)N(Cc3ccc(C)cc3)C2=O)cc1,-1.51
9,COc1cccc(C(=O)Nc2c(C)cc(C)cc2C)c1,-5.82
10,COc1ccc(NC(=O)C2=C(C)NC(=O)NC2c2cccc(Br)c2)cc1 (stereo not drawn),0.993
11,CCCCN1CC(C(=O)NCCc2ccccc2)CC1=O (stereo not drawn),-0.0542
12,Cc1nnc(N2CCCC(C(=O)N3CCOCC3)C2)c2nn(-c3ccccc3)c(C)c12 (stereo not drawn),-2.5
13,CCC1NC2(C(=O)N(C)c3ccccc32)C2C(=O)N(Cc3ccccc3)C(=O)C12 (stereo not drawn),-2.09
14,C[C@H](C[C@H](NC(=O)OCc1ccccc1)C(=O)NCC#N)c1c(F)cccc1F,-6.56
15,Cc1ccc(C2CC(=O)NC3=C2C(=O)CC(c2ccc(F)cc2)C3)cc1 (stereo not drawn),1.31
16,CCc1ccccc1NC(=O)c1ccccc1Br,-1.86
17,CCCC(=O)Nc1noc2ccccc12,-4.64
18,CSc1c(CN2CCN(C)CC2)c2ccccc2n1C,0.956
19,CC(C)(C)c1ccc(/C=c2\sc3nc(-c4cccnc4)nn3c2=O)cc1,-3.33
20,CC(=O)c1cccc(NC(=O)/C(=C/c2cccc3ccccc23)NC(=O)c2ccccc2)c1,3.72
21,COc1ccc(CNC(=O)CN(c2cccc(C)c2)S(=O)(=O)c2ccccc2)cc1,-6.02

row,Structure (SMILES),% Inhibition @ 10 uM [%]
1,COc1ccc(OC)c(CNC(=O)CCc2c(C)nc3c4cccnc4nn3c2C)c1,-5.25
2,N#CCNC(=O)[C@H](NC(=O)OCc1ccccc1)C1CCCCC1,0.079
3,CCC(C)NC(=O)COc1ccc2c(c1)C(=O)CC(C)(C)O2 (stereo not drawn),-4.07
4,COc1ccc(Cl)cc1NC(=O)c1ccccc1C,0.526
5,CCCNC(=O)CN(Cc1ccc(C)cc1)S(=O)(=O)c1ccc(Br)cc1,4.39
6,Cc1cccc(Nc2nc(-c3ccccn3)cs2)c1,3.61
7,Cc1ccc(C)c(C(C)(C)CC(=O)O)c1,5.37
8,Cc1ccccc1CS(=O)(=O)Cc1ccc(C(=O)NCc2cccnc2)o1,-0.0542
9,O=C(CSc1nnnn1-c1ccccc1)NCCOC12CC3CC(CC(C3)C1)C2,-3.04
10,CCC(C)[C@H](NC(=O)c1ccncc1)C(=O)N[C@@H](CCc1ccccc1)C(=O)CO (stereo partly drawn),0.744
11,COc1ccc(OC)c(C2C(C#N)=C(N)Oc3[nH]nc(-c4ccc(F)cc4)c32)c1 (stereo not drawn),0.343
12,Cc1nc2nc(C3CCN(C(=O)OC(C)(C)C)CC3)nn2c(C)c1CCC(=O)O,-2.17
13,CCC(CC)c1nn2cc(-c3ccc(C)c(C)c3)nc2s1,9.89
14,CCN(Cc1ccccc1)C(=O)c1ccccc1Cl,2.22
15,CC(=O)Nc1ccc(NS(=O)(=O)c2ccccc2C)cc1,3.48
16,O=C(CN1C(=O)c2ccccc2C1=O)NCCc1ccccc1F,-3.21
17,O=C(O)CSc1nnc2n(-c3ccccc3)c3ccccc3n12,-2.21
18,COc1cccc(CN2CCN(c3ccc(C(C)=O)cc3)CC2)c1,-2.02
19,Cc1ccc2onc(CNC(=O)NCCc3c[nH]c4ccccc34)c2c1,-4.02
20,CN(Cc1ccccc1)CC(O)c1ccccc1 (stereo not drawn),-3.5
21,O=[N+]([O-])c1ccc(S(=O)(=O)Nc2nccs2)cc1,-0.687

row,Structure (SMILES),% Inhibition @ 10 uM [%]
1,CCCS(=O)(=O)n1nc(-c2ccc(OCC)cc2)cc1N,12.6
2,O=C1CC(N2CCN(C/C=C/c3ccccc3)CC2)C(=O)N1c1cccc(Br)c1 (stereo not drawn),3.53
3,Cc1cc(C)cc(OCc2cc(=O)n3oc(C)cc3n2)c1,-7.65
4,O=C1CCCN1CCCNc1ncnc2c1c(-c1ccccc1)cn2-c1ccc(Cl)cc1,3.36
5,O=C(NCCCc1ccccc1)C(=O)NCC(c1cccnc1)N1CCOCC1 (stereo not drawn),-3.74
6,O=C(CN1CCCN(Cc2ccc(F)cc2Cl)C1=O)NCc1ccc(Cl)cc1,3.93
7,CCc1ccc(CN2CCc3c([nH]c4ccccc34)C2)cc1,3.1
8,O=C(CC(Nc1ccc(Br)cc1)c1ccccc1)c1ccccc1 (stereo not drawn),4.33
9,CCCCNc1nc2c(c(=O)n(C)c(=O)n2C)n1CC(O)COc1ccccc1 (stereo not drawn),2.31
10,OCCN1CCN(Cc2ccc(Cl)c(Cl)c2)CC1,0.247
11,O=C(O)c1ccccc1-c1ccc(C(F)(F)F)cc1,0.219
12,CCOc1cc(C(=O)Nc2nn3c(-c4ccc(C)cc4)nnc3s2)cc(OCC)c1OCC,-1.26
13,CCOC(=O)c1cc(C)n(CC2CCC(C(=O)N(C)C3CCCCC3)CC2)c1C (stereo not drawn),0.453
14,N#CCNC(=O)c1nn2c(C(F)(F)F)cc(-c3ccccc3)nc2c1Br,-9.15
15,COC(=O)c1ccc(Cl)c(-c2ccc(C(=O)N[C@@H](C[C@H](C)c3ccccc3)C(=O)NC3(C#N)CCN(CC(F)(F)F)CC3)cc2)c1,-1.5
16,COC(=O)C1=CN(CCc2ccc(OC)cc2)C=C(C(=O)OC)C1c1ccccc1C(F)(F)F,5.17
17,Fc1ccc2c(c1)[C@H]1OCC[C@H]1[C@@H](c1ccco1)N2,-0.872
18,COc1ccc(N(CC(N)=O)S(=O)(=O)c2ccc(C)cc2)cc1Cl,-1.95
19,CCOCCCNC(=O)c1ccc2c(c1)ncn2-c1cccc(F)c1,2.8
20,CC(C)(C)c1ccc(S(=O)(=O)Nc2noc3ccccc23)cc1,-1.11
21,COc1cc(OC)nc(-n2[nH]c(=O)c3ccccc3c2=O)n1,0.343

# Source: article PMC6919601, “Identification of Plasmodium dipeptidyl aminopeptidase allosteric inhibitors by high throughput screening” (PLoS ONE, 2019)
